From PubChem BioAssay AID1745853 (National Center for Advancing Translational Sciences (NCATS), 2022) come the findings set out here.

Common to all, as to test: Primary Screen for Target Class Profiling of Small Molecule Inhibitors of Methyltransferases
Assay [1] concerns the target Glycine N-methyltransferase (Homo sapiens) (UniProt Q14749). To be noted: purified enzyme, MTase-Glo SAH luminescence; measured here: GNMT inhibition; at 40 µM; stronger effect = lower value. Put shortly:
(§1)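 Each enzyme was assayed with SAM and its substrate. SAH formation detected by MTase-Glo luminescence; single-point 40 uM screen[…].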

Assay [2] addresses Guanidinoacetate N-methyltransferase (Homo sapiens) (UniProt Q14353). Particulars: purified enzyme, MTase-Glo SAH luminescence; measured here: GAMT inhibition; at 40 µM; stronger effect = lower value. Put shortly:
as §1

Assay [3] concerns the target Histamine N-methyltransferase (Homo sapiens) (UniProt P50135). To be noted: purified enzyme, MTase-Glo SAH luminescence; measured here: HNMT inhibition; at 40 µM; stronger effect = lower value. Put shortly:
as §1

For assay [4], the target named is Nicotinamide N-methyltransferase (Homo sapiens) (UniProt P40261). To be noted: purified enzyme, MTase-Glo SAH luminescence; measured here: NNMT inhibition; at 40 µM; stronger effect = lower value. Summed up: as §1
The target in assay [5] is Phenylethanolamine N-methyltransferase (Homo sapiens) (UniProt P11086). To be noted: purified enzyme, MTase-Glo SAH luminescence; measured here: PNMT inhibition; at 40 µM; stronger effect = lower value. Put shortly:
as §1

Each structure is given as a SMILES string. Values joined by “and” are separate entries in the source; they are usually repeats but may differ in a detail not shown here. Identical values can stand only once. The list shows a part of the results. The main result of the screen is listed elsewhere. These columns were measured beside it and carry no call.
% is scaled to controls: 0 for no effect and ±100 for the full control effect.

For the molecule `Cc1ccc(NC(=O)CSc2nnc3n(CC(C)C)c(=O)c4ccc(C(=O)NC(C)C)cc4n23)cc1`, the activity change, negative = inhibition was -4.28% in assay [1]; -13.7% in assay [2]; 3.13% in assay [3]; -5.68% in assay [4]; -2.83% in assay [5].

For `CCCCS(=N)(=O)CC[C@H](N)C(=O)O` (stereo partly drawn), the activity change, negative = inhibition in assay [1] is -7.23%; in assay [2], -0.62%; in assay [3], -1.69%; in assay [4] it was 6.94%; in assay [5], -3.81%.

Take `CCCc1ccc(CN2CCC(c3nnc(Cn4ccnc4)n3C3CC3)CC2)o1`: the activity change, negative = inhibition in assay [1] was -3.2%; in assay [2], -3.96%; in assay [3] it was -6.31%; in assay [4], -3.5%; in assay [5], -1.33%.

`NC(=O)c1ccc(OCC2NC(=O)C3CCCN3C2=O)cc1` (stereo not drawn): the activity change, negative = inhibition in assay [1] was -3.53%; in assay [2], -2.89%; in assay [3] it was 0.808%; in assay [4] it was -11.4%; in assay [5], 1.81%.

Turning to `COc1ccc(CNC(=O)CCC2CCCN(C(=O)CCN3CCCCO3)C2)c(OC)c1` (stereo not drawn), the activity change, negative = inhibition is -5.53% in assay [1]; -12.4% in assay [2]; -4.81% in assay [3]; -25.1% in assay [4]; -14.1% in assay [5].

Turning to `CC1CCC(NC(=O)C2(C)Cn3c(cc4occc43)C(=O)N2C2CCCCC2)CC1` (stereo not drawn), the activity change, negative = inhibition is -0.955% in assay [1]; 2.69% in assay [2]; 4.08% in assay [3]; -3.44% in assay [4]; 2.44% in assay [5].

Consider `CCOc1cccc2c1OC(c1ccc(F)cc1)C([N+](=O)[O-])=C2` (stereo not drawn), for which the activity change, negative = inhibition was 1.74% in assay [2], -8.09% in assay [4] and 4.05% in assay [5].

Regarding `C=C(CC/C=C(\C)C(=O)O)C1(O)CC=C(C)CC1` (stereo not drawn), the activity change, negative = inhibition is 0% in assay [1]; 0.833% in assay [2]; 0.024% in assay [3]; -8.12% in assay [4]; 3.92% in assay [5].

`COc1ccc(NS(=O)(=O)c2ccc3[nH]c(=O)[nH]c3c2)c(OC)c1`: the activity change, negative = inhibition is -0.373% in assay [1]; 4.08% in assay [2]; -2.98% in assay [3]; -7.22% in assay [4]; -13.9% in assay [5].

Regarding `Cc1ccc(-c2nnc3n(CCc4ccccc4)c(=O)c4ccccc4n23)cc1`, the activity change, negative = inhibition is -7.81% in assay [1]; 5.72% in assay [2]; -0.901% in assay [3]; -9.46% in assay [4]; -7.94% in assay [5].

With `CCC(C)NC(=O)c1ccc2c(=O)n(C(C)C)c3nn(CC(=O)Nc4ccc(C)cc4)c(=O)n3c2c1` (stereo not drawn), the activity change, negative = inhibition in assay [1] amounted to 5.45%; in assay [2], 5.33%; in assay [3], 4.42%; in assay [4], 1.68%; in assay [5] it was 6.27%.

In the case of `Fc1cccc(CN(C2=NCCN2)c2c(Cl)cccc2Cl)c1`, the activity change, negative = inhibition in assay [1] was 5.53%; in assay [2], 9.52%; in assay [3], -46.5%; in assay [4], -25%; in assay [5], 5.14%.

Consider `CCOC(=O)C1CCN(C(=O)CCn2ccc3cc(S(=O)(=O)N4CCCCC4)ccc32)CC1`, for which the activity change, negative = inhibition came to 5.49% in assay [1]; 0.766% in assay [2]; 1.58% in assay [3]; 4.99% in assay [4]; 1.33% in assay [5].

Turning to `COc1ccc(-c2n[nH]n3c2nc(=O)c2ccc(C(=O)NCc4ccccc4OC)cc23)cc1`, the activity change, negative = inhibition in assay [1] was -8.33%; in assay [2], 4.21%; in assay [3], 0.615%; in assay [4], 1.44%; in assay [5], -1.4%.

With `Cn1c(=O)n(C)c2cc(S(=O)(=O)Nc3cccc(F)c3)ccc21`, the activity change, negative = inhibition in assay [1] is 10.7%; in assay [2] it was 0%; in assay [3] it was 10.4%; in assay [4], 2.24%; in assay [5] it was 2.96%.

As to `O=C1NC2CCc3nc4ccccc4c(=O)n3C2=Nc2ccccc21` (stereo not drawn), the activity change, negative = inhibition in assay [1] was 3.13%; in assay [2], 4.75%; in assay [3], 13.5%; in assay [4], -7.24%; in assay [5], 5.22%.

Consider `CC(=O)OC[C@]1(O)[C@H]2[C@H](OC(=O)CC(C)C)OC=C(CO[C@@H]3O[C@H](CO)[C@@H](O)[C@H](O)[C@H]3O)[C@H]2C[C@@H]1O`, for which the activity change, negative = inhibition is -1.83% in assay [1]; 1.46% in assay [2]; 8.37% in assay [3]; -11.6% in assay [4]; 6.95% in assay [5].

Regarding `O=C(COc1ccc2c(-c3ccccc3)cc(=O)oc2c1)c1ccc(Cl)cc1`, the activity change, negative = inhibition is -0.13% in assay [1]; 0.271% in assay [2]; 4.26% in assay [3]; 2.79% in assay [4]; -0.096% in assay [5].

Take `CCN(Cc1noc(C2CCC2)n1)C(=O)CC1C(=O)NCCN1CC(C)C` (stereo not drawn): the activity change, negative = inhibition was -3.39% in assay [1]; 0.041% in assay [2]; -1.2% in assay [3]; -6.95% in assay [4]; -2.35% in assay [5].

For the molecule `CC(C)(C(=O)O)c1ccc(C(O)CCCN2CCC(C(O)(c3ccccc3)c3ccccc3)CC2)cc1` (stereo not drawn), the activity change, negative = inhibition in assay [1] is 1.87% and 11.3%; in assay [2] it was 6.16% and 15.9%; in assay [3], 9.46% and 12.5%; in assay [4], -14.9% and -2.41%; in assay [5], 3.3%.
